From PubChem BioAssay (NCI) come the findings set out here.

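Briefly, cells in 96-well plates were exposed to five compound concentrations for 48 h, and endpoints were estimated by linear interpolation. The concentration for 50% growth inhibition is given as GI50. The concentration for full growth arrest is given as TGI.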

The assay concerns NCI-H322M lung. Description: NCI anticancer screen, dose series, 48 h.

In the case of `CCOC(=O)c1c(NC(=O)c2ccccc2C(F)(F)F)sc2c1CCC(=O)C2`, the GI50 is 4.12 µM and the TGI was above 100 µM.
In the case of `CC(=O)OC[C@@]12Oc3c(cccc3-c3ccc(O)c4c3O[C@]3(COC(C)=O)C(=C4O)C(=O)C[C@H](C)[C@@H]3OC(C)=O)C(O)=C1C(=O)C[C@H](C)[C@@H]2OC(C)=O`, the GI50 is 20.1 µM and the TGI is above 100 µM.
